Numbering of substitutions follows the chain as printed. Names may count otherwise. These are yes or no findings as the source states them, for the method shown. In cells and extracts the contact can be indirect. Some binding calls cover weakened binding; strength is not graded here. Tags and fused reporters may be left off the sequences shown.
B1: GFP-VPS41^WT (human vacuolar protein sorting 41, wild type, GFP-tagged) (protein, UniProt P49754-1 1-854)
chain: MAEAEEQETGSLEESTDESEEEESEEEPKLKYERLSNGVTEILQKDAASCMTVHDKFLALGTHYGKVYLLDVQGNITQKFDVSPVKINQISLDESGEHMGVCSEDGKVQVFGLYSGEEFHETFDCPIKIIAVHPHFVRSSCKQFVTGGKKLLLFERSWMNRWKSAVLHEGEGNIRSVKWRGHLIAWANNMGVKIFDIISKQRITNVPRDDISLRPDMYPCSLCWKDNVTLIIGWGTSVKVCSVKERHASEMRDLPSRYVEIVSQFETEFYISGLAPLCDQLVVLSYVKEISEKTEREYCARPRLDIIQPLSETCEEISSDALTVRGFQENECRDYHLEYSEGESLFYIVSPRDVVVAKERDQDDHIDWLLEKKKYEEALMAAEISQKNIKRHKILDIGLAYINHLVERGDYDIAARKCQKILGKNAALWEYEVYKFKEIGQLKAISPYLPRGDPVLKPLIYEMILHEFLESDYEGFATLIREWPGDLYNNSVIVQAVRDHLKKDSQNKTLLKTLAELYTYDKNYGNALEIYLTLRHKDVFQLIHKHNLFSSIKDKIVLLMDFDSEKAVDMLLDNEDKISIKKVVEELEDRPELQHVYLHKLFKRDHHKGQRYHEKQISLYAEYDRPNLLPFLRDSTHCPLEKALEICQQRNFVEETVYLLSRMGNSRSALKMIMEELHDVDKAIEFAKEQDDGELWEDLILYSIDKPPFITGLLNNIGTHVDPILLIHRIKEGMEIPNLRDSLVKILQDYNLQILLREGCKKILVADSLSLLKKMHRTQMKGVLVDEENICESCLSPILPSDAAKPFSVVVFHCRHMFHKECLPMPSMNSAAQFCNICSAKNRGPGSAILEMKK
B2: VPS41^S285P-APEX2-V5 (protein, UniProt P49754-1 1-854)
chain: B1 chain with S285P
B3: VPS41^R662*-APEX2-V5 (domain or fragment, UniProt P49754-1 1-661)
chain: MAEAEEQETGSLEESTDESEEEESEEEPKLKYERLSNGVTEILQKDAASCMTVHDKFLALGTHYGKVYLLDVQGNITQKFDVSPVKINQISLDESGEHMGVCSEDGKVQVFGLYSGEEFHETFDCPIKIIAVHPHFVRSSCKQFVTGGKKLLLFERSWMNRWKSAVLHEGEGNIRSVKWRGHLIAWANNMGVKIFDIISKQRITNVPRDDISLRPDMYPCSLCWKDNVTLIIGWGTSVKVCSVKERHASEMRDLPSRYVEIVSQFETEFYISGLAPLCDQLVVLSYVKEISEKTEREYCARPRLDIIQPLSETCEEISSDALTVRGFQENECRDYHLEYSEGESLFYIVSPRDVVVAKERDQDDHIDWLLEKKKYEEALMAAEISQKNIKRHKILDIGLAYINHLVERGDYDIAARKCQKILGKNAALWEYEVYKFKEIGQLKAISPYLPRGDPVLKPLIYEMILHEFLESDYEGFATLIREWPGDLYNNSVIVQAVRDHLKKDSQNKTLLKTLAELYTYDKNYGNALEIYLTLRHKDVFQLIHKHNLFSSIKDKIVLLMDFDSEKAVDMLLDNEDKISIKKVVEELEDRPELQHVYLHKLFKRDHHKGQRYHEKQISLYAEYDRPNLLPFLRDSTHCPLEKALEICQQRNFVEETVYLLS
B4: VPS41^WT-APEX2-V5 (protein, UniProt P49754-1 1-854)
chain: B1 chain
B5: GFP-VPS41^S285P (protein, UniProt P49754-1 1-854)
chain: B1 chain with S285P
B6: GFP-VPS41^R662* (domain or fragment, UniProt P49754-1 1-661)
chain: B3 chain

Amino acid sequences for entries named in this document (tags omitted).
UniProt P51149: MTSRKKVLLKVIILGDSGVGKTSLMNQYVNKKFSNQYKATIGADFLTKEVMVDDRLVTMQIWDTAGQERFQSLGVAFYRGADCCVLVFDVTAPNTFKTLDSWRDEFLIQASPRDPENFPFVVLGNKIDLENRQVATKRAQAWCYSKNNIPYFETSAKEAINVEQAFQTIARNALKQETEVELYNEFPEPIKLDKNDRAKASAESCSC
UniProt Q9NVJ2: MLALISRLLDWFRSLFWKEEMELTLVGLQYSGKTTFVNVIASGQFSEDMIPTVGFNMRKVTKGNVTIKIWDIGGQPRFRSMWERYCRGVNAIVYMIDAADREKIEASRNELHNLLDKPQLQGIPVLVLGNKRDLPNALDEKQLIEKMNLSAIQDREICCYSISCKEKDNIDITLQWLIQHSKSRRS

Columns and labels:
[1] = molecular target: T1, endogenous VPS18 (human (endogenous in HeLa)) (UniProt Q9P253); test: co-IP; HeLa^VPS41KO cells expressing GFP-tagged VPS41 constructs; endogenous VPS18 detected; CHAPS lysis buffer
T1 sequence: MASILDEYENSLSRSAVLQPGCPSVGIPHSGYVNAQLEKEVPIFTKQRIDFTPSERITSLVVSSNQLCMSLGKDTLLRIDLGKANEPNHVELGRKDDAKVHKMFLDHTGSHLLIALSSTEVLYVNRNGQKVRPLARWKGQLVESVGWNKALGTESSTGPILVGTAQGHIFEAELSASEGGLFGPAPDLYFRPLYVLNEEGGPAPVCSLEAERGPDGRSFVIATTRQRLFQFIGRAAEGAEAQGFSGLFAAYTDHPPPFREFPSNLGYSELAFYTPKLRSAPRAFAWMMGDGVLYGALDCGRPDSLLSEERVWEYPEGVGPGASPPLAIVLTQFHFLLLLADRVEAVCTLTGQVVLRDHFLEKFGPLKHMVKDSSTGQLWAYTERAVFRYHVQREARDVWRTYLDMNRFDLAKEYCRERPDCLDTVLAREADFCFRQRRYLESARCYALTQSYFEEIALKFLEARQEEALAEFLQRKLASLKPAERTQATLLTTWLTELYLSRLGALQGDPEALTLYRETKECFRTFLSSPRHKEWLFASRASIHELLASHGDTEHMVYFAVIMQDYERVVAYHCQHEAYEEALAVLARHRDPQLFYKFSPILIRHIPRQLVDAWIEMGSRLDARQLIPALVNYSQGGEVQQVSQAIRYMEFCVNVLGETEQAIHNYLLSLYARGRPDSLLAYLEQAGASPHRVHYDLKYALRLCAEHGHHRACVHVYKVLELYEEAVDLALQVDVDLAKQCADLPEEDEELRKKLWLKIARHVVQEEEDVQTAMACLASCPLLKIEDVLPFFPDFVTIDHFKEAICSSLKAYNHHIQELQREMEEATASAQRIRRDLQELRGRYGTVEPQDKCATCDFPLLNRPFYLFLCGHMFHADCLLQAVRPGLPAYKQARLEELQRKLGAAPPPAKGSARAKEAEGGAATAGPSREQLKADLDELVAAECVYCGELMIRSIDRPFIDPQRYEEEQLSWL

[2] = molecular target: T2, FLAG-VPS18 (UniProt Q9P253); test: co-IP; HeLa cells co-expressing GFP-VPS41 constructs and FLAG-VPS18 or HA-VPS33A; CHAPS lysis buffer (50 mM Tris pH 7.5, 150 mM NaCl, 5 mM MgCl2, 1 mM DTT, 1% CHAPS); protein G beads with 2 µg antibody, overnight; which partner was precipitated is not told
T2 sequence: T1 sequence

[3] = molecular target: T3, HA-VPS33A (UniProt Q96AX1); test: as above
T3 sequence: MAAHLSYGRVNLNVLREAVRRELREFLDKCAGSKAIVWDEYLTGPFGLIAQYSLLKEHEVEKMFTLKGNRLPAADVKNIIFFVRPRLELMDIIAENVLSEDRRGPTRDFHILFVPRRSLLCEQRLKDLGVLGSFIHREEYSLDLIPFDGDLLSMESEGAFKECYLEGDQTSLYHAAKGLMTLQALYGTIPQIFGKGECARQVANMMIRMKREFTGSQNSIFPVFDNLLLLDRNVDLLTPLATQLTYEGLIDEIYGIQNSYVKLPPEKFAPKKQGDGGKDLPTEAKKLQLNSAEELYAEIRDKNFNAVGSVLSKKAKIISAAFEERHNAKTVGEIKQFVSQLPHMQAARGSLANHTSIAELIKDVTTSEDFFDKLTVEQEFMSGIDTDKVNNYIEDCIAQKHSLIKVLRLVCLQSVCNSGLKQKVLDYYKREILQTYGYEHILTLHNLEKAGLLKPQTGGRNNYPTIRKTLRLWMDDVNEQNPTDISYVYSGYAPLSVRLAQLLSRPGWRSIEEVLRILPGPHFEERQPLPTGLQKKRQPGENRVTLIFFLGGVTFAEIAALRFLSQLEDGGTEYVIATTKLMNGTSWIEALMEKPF

[4] = molecular target: FLAG-RAB7 (UniProt P51149); test: co-IP; HeLa^WT cells transiently co-expressing VPS41-APEX2-V5 constructs and FLAG-RAB7 or GFP-Arl8b; IP on FLAG or GFP, respectively; CHAPS lysis buffer
[5] = molecular target: GFP-Arl8b (UniProt Q9NVJ2); test: as above

Binder	binding [1]	binding [2]	binding [3]	binding [4]	binding [5]
B1	binds	binds	binds		
B2				binds	binds
B3				binds	binds
B4					binds
B5	binds	binds	binds		
B6	no binding				
